# In all, about 220,000 compounds went through this assay and about 16,000 (7.3%) were called active. This list was built around the results that the source calls inconclusive (neither active nor inactive); the mix of calls is not that of the screen. Calls come from the whole dose curve; as a rule, active = well fitted inhibition curve with a large enough effect (not every such curve was filed as active); inconclusive = small, poorly fitted or top-dose-only effect, or another doubt; inactive = no such curve, though single readings can be large or run the other way. Potencies of inconclusive entries are left out as doubtful fits.
# Biological target: Aldehyde dehydrogenase 1A1 (Homo sapiens) (UniProt P00352)
# UniProt P00352, sequence (P00352 whole entry, looked up): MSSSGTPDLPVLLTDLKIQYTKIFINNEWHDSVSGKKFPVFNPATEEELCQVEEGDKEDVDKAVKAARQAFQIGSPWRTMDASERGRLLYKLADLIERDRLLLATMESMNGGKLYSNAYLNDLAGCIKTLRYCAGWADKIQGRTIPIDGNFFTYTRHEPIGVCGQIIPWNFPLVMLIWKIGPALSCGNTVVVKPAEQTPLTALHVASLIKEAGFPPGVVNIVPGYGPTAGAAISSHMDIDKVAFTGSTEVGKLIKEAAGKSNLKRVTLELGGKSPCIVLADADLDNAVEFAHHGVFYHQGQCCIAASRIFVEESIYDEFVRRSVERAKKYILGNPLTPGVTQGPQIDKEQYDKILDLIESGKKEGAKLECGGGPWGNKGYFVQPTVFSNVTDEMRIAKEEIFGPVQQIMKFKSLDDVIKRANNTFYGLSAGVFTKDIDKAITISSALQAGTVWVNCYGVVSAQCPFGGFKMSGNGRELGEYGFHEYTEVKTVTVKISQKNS
# Assay: qHTS Assay for Inhibitors of Aldehyde Dehydrogenase 1 (ALDH1A1)
# Conditions: Purified ALDH1A1, NADH fluorescence, propionaldehyde substrate; series mostly up to 75.3 µM
# Potency is the fitted concentration of half-maximal effect; tags give direction and shape of the fitted curve.
row,SMILES,Potency
1,Cc1nc(-c2ccccc2)cn2c1nc1ccccc12,"inconclusive [inhibitor, partial curve]"
2,O=C(O)/C=C/C(=O)N1CCN(c2ccc(F)cc2)CC1,"inconclusive [inhibitor, single point]"
3,O=c1c2ccccc2sn1-c1ccccc1,active: 4.47 µM
4,Cc1ccc(S(=O)(=O)NCC2NCCc3ccccc32)cc1 (centres undefined),"inconclusive [inhibitor, single point]"
5,CCOC(=O)c1cnc2ccc(C(=O)OC)cc2c1Nc1ccc(C(=O)O)cc1,inactive
6,O=S(=O)(NC1CCCC1)c1cccc(-c2nnc(-c3ccccc3)o2)c1,"inconclusive [inhibitor, single point]"
7,CC(C)c1ccc(NC(=S)NN2CCN(C)CC2)cc1,inactive
8,Nc1c(C(=O)NCCN2CCOCC2)c2nc3ccccc3nc2n1CCc1ccccc1,"inconclusive [inhibitor, partial curve]"
9,COc1cc(-c2nnc(CSc3nc4ccccc4s3)o2)cc(OC)c1OC,"inconclusive [inhibitor, single point]"
10,C/C(=N\NC(=O)COc1ccccc1F)c1cc2ccccc2o1,"inconclusive [inhibitor, single point]"
11,COCC1=C2c3ccccc3[C@H](C[N+](=O)[O-])C(C(=O)OC)(C(=O)OC)C[C@@H]2n2c(=O)n(-c3ccccc3)c(=O)n2C1,inactive
12,C/C(=N\NC(N)=S)C1(C)CCCCC1,"inconclusive [inhibitor, partial curve]"
13,COc1ccc(N=C2S/C(=C\c3ccc(N4CCOCC4)o3)C(=O)N2CCc2c[nH]c3ccccc23)cc1,active: 8.91 µM
14,CC(C)=CCCC1(C)C=Cc2c(c(C)cc3c2[nH]c2ccccc23)O1 (centres undefined),inactive
15,COC(=O)COc1ccc(S(=O)(=O)Nc2ccc(C(N)=O)cc2)cc1Cl,inactive
16,CC(C)(C)OC(=O)C1=NOC2(C=CC(=O)C=C2)C1,inactive
17,COc1ccc(CCNS(=O)(=O)c2cc(C(=O)O)c(Cl)cc2Cl)cc1,"inconclusive [inhibitor, partial curve]"
18,O=C(O)C1CSC2c3ccccc3C(=O)N12 (centres undefined),active: 7.51 µM
19,Cc1ccc(NCc2nnc(SCC#N)o2)c(C)c1,inactive
20,O=C(Nc1cccc(F)c1)N1CCCC(CNS(=O)(=O)Cc2ccccc2)C1 (centres undefined),inactive
21,O=C(COC(=O)Cn1cnc2ccccc21)Nc1ccc2c(c1)C(=O)c1ccccc1C2=O,active: 0.631 µM
22,CCCC(=Nc1ccc(N)cc1)C1=C(O)C(C(=O)OC)C(C)(C)CC1=O (centres undefined),"inconclusive [inhibitor, single point]"
23,O=C(c1ccc(S(=O)(=O)c2ccccc2Cl)c([N+](=O)[O-])c1)N1CCN(Cc2ccccc2)CC1,active: 14.1 µM
24,Cc1cc2ncn(C(=O)c3c(-c4c(Cl)cccc4Cl)noc3C)c2cc1C,"inconclusive [inhibitor, single point]"
25,O=C(c1ccc(-n2c(SCc3cccc(F)c3)nc3ccccc3c2=O)cc1)N1CCOCC1,active: 0.316 µM

row,SMILES,Potency
1,NC(=O)c1ccccc1N=Cc1ccc2ccccc2c1,"inconclusive [inhibitor, partial curve]"
2,Cc1ccc2nc(NC(=O)CSCC(=O)OCC(=O)c3ccccc3)sc2c1,"inconclusive [inhibitor, single point]"
3,Cc1cccc(N=Cc2[nH]c3ccc(Br)c(Cl)c3c2O)c1,active: 4.47 µM
4,Nc1ccc2ncccc2c1,"inconclusive [inhibitor, partial curve]"
5,O=S1(=O)C=C(SCc2ccc(F)cc2)Nc2ccccc21,inactive
6,COCCN=C1Sc2nc3ccc(C)cc3cc2CN1Cc1cccs1,inactive
7,CCCc1cc(C(=O)Nc2sc(C)c(C)c2C(=O)OCC)no1,"inconclusive [inhibitor, partial curve]"
8,O=c1c(C/C=C/c2ccccc2)c(O)ccn1Cc1cccc(Cl)c1,inactive
9,Cc1cc(C)c(S(=O)(=O)Nc2ccccc2C(=O)O)cc1C,"inconclusive [inhibitor, partial curve]"
10,Cc1onc(-c2ccccc2Cl)c1C(=O)Nc1ccc(-c2cn3cccnc3n2)cc1,"inconclusive [inhibitor, partial curve]"
11,O=C(CCN1CCN(S(=O)(=O)c2ccc(Cl)cc2)CC1)Nc1ccccc1F,"inconclusive [inhibitor, partial curve]"
12,O=C(Nc1cccc(S(=O)(=O)N2CCCCC2)c1)Nc1ccc(Cl)cc1Cl,inactive
13,Cc1cccc(OCc2nc(-c3ccc(Br)o3)no2)c1,"inconclusive [inhibitor, single point]"
14,Cc1noc(/C=C/N(C)C)c1S(=O)(=O)N1CCCC(C(=O)Nc2ccc3c(c2)OCO3)C1 (centres undefined),"inconclusive [inhibitor, single point]"
15,COc1ccc(/C=N\NC(=O)c2cc(O)c(O)c(O)c2)cc1CN1CCN(c2ccc(F)cc2)CC1,active: 12.6 µM
16,COC(=O)c1ccc(OCC(O)CN2C(=O)c3ccccc3S2(=O)=O)cc1 (centres undefined),"inconclusive [inhibitor, partial curve]"
17,Cc1c(Cl)c([N+](=O)[O-])nn1CCCC(=O)NC(C)c1ccccc1 (centres undefined),inactive
18,COCOc1cc(OC)ccc1C(=O)/C=C/c1ccc2c(c1)OCO2,inactive
19,COC(=O)C(NC(C)=O)(Nc1sc2c(c1C(N)=O)CCCC2)C(F)(F)F (centres undefined),"inconclusive [inhibitor, single point]"
20,C#CCOC(=O)/C(=C/C=C/c1ccccc1)NC(=O)c1ccccc1,"inconclusive [inhibitor, single point]"
21,COC(=O)c1cccnc1-n1c(=O)c2cccnc2n(Cc2ccc([N+](=O)[O-])cc2)c1=O,inactive
22,CCOc1ccc(-c2[nH]ncc2Oc2cccc(OC)c2)c(O)c1,"inconclusive [inhibitor, single point]"
23,CCSc1nnc(NC(=O)CSc2nc3c(c(=O)n2-c2ccccc2OC)SCC3)s1,"inconclusive [inhibitor, single point]"
24,COCCn1c(=O)c(-c2ccc(F)cc2)nc2cnc(OCc3ccccc3)nc21,"inconclusive [inhibitor, partial curve]"
25,COc1ccc2[nH]cc(CCNc3ccnc(-c4ccccc4Cl)n3)c2c1,active: 25.1 µM

row,SMILES,Potency
1,O=C(NNC1OC(CO)C(O)C(O)C1O)c1cccc(Br)c1 (centres undefined),active: 11.2 µM
2,COc1ccc(Cl)cc1NC(=O)Cn1cccc1,active: 12.6 µM
3,COc1ccc(C2NCCO2)cc1OC (centres undefined),"inconclusive [inhibitor, single point]"
4,CCOC(=O)C1=C(C)Nc2ccccc2N=C1NC(=O)/C=C/c1ccc(OC)cc1OC,active: 20 µM
5,Nc1ncnc2c1ncn2[C@@H]1O[C@H](COP(=O)(O)OP(=O)(O)OP(=O)(O)OP(=O)(O)OC[C@@H]2O[C@H](n3cnc4c(N)ncnc43)[C@@H](O)[C@@H]2O)[C@H](O)[C@H]1O,inactive
6,O=C(O)CCc1ccc(-c2ccc(F)cc2)n1CCC(=O)O,"inconclusive [inhibitor, partial curve]"
7,C(=C\c1nc(N2CCCCCC2)c2ccccc2n1)/c1ccccc1,"inconclusive [inhibitor, single point]"
8,CCCOC(=O)c1ccc(Cl)c(NC(=O)c2cccnc2)c1,"inconclusive [inhibitor, single point]"
9,CC(=O)NNc1nc2ccccc2s1,inactive
10,Cc1nc2ccc(NC(=S)NCCCO)cc2nc1C,"inconclusive [inhibitor, single point]"
11,Cc1ccc(C)c(S(=O)(=O)NCc2ccc(C(=O)N3CCC(Cc4ccccc4)CC3)cc2)c1,"inconclusive [inhibitor, partial curve]"
12,CCN(CC)S(=O)(=O)c1ccc(N2CCOCC2)c(NC(=O)c2ccc(C#N)cc2)c1,active: 20 µM
13,COC(=O)c1c(NS(=O)(=O)c2ccc(C)cc2)sc2c1CCC(C)C2 (centres undefined),"inconclusive [inhibitor, single point]"
14,COC(=O)c1cccc(NC(=O)c2cc(OC)c(OC)c(OC)c2Br)c1,active: 39.8 µM
15,CC(=O)c1ccc(NC(=O)C(=O)c2cn(CC(=O)N3CCCCC3)c3ccccc23)cc1,inactive
16,CCOC(=O)c1sc(C)c2c1NC(C)(c1cccc3ccccc13)NC2=O (centres undefined),"inconclusive [inhibitor, partial curve]"
17,O=C(O)Cc1cc(C(=O)Nc2ccc(Br)cc2)sc1-c1ccccc1,"inconclusive [inhibitor, single point]"
18,Cc1ccc(-c2nc3ccccc3o2)cc1NC(=S)NC(=O)c1cc2ccccc2o1,"inconclusive [inhibitor, single point]"
19,Cc1ccc(-n2c(C)nnc2SCC(=O)NNC(=O)c2ccco2)cc1,inactive
20,CC(=O)Oc1ccc2oc(=O)c3c(c2c1)CCCN3C(=O)CN1CCOCC1,"inconclusive [inhibitor, single point]"
21,CCc1nc(Nc2ccccc2)c2oc3ccccc3c2n1,"inconclusive [inhibitor, single point]"
22,Cc1ccc(N(C(=O)c2snc(C(N)=O)c2N)C(C(=O)NCCC(C)C)c2ccco2)cc1 (centres undefined),inactive
23,CCOC(=O)Cc1ccc(NS(=O)(=O)c2ccc(SC)cc2)cc1,active: 8.91 µM
24,COc1cccc(Cn2c(=O)c(C)nc3cnc(N4CCNCC4)nc32)c1,"inconclusive [inhibitor, single point]"
